Data: PubChem BioAssay AID1476 (National Center for Advancing Translational Sciences (NCATS), 2009)
The campaign covered roughly 200,000 compounds. About 4,500 (2.2%) were called active. Inconclusive results, whose numbers are uncertain, are shown with a selection of clear calls. Calls follow the shape of the dose curve; as a rule, active = well fitted inhibition curve with a large enough effect; inconclusive = small, poorly fitted or top-dose-only effect, or effect the other way; inactive = flat fitted curve, though single readings scatter. Potencies of inconclusive entries are doubtful fits and often do not repeat.

Biological target: Cruzipain (Trypanosoma cruzi) (UniProt P25779)
Assay: qHTS Assay for Promiscuous and Specific Inhibitors of Cruzain (without detergent); also: nearly all actives have a fitted effect of over 40% in size;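 as to max response, negative = inhibition: plate controls were enzyme without inhibitor for no effect and buffer without enzyme for full effect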
Conditions: purified cruzain, Z-FR-AMC fluorescence, no detergent
In short: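 Purified cruzain at 1.5 nM, pre-incubated 15 min with compound at room temperature in 100 mM sodium acetate pH 5.5, 5 mM DTT, 0.00005% Triton X-100. Reaction started with 2 uM Z-FR-AMC; AMC fluorescence increase over 60 s gives rate.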
Potency is read from the fitted curve at half-maximal effect; tags tell the direction and shape of the fitted curve.

UniProt P25779, sequence (P25779 whole entry, looked up): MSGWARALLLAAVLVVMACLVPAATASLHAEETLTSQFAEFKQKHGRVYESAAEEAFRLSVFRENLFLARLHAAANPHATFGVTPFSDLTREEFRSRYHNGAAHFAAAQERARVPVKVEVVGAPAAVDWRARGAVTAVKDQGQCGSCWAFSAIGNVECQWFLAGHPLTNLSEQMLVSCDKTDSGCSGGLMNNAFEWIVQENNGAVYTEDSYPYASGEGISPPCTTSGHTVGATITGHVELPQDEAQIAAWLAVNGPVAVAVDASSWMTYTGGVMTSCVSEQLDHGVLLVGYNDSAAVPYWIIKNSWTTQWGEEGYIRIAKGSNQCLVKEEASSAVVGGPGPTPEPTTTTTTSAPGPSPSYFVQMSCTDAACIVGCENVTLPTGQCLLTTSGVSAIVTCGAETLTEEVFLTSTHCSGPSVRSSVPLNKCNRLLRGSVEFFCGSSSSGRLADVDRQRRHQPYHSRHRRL

| Compound | Potency | max response, negative = inhibition |
| --- | --- | --- |
| Cc1cc2cc(C)c3nnc(SCC(=O)NCc4ccco4)n3c2cc1C | inconclusive: 39.8 µM [activator, single point] | – |
| COc1ccccc1N/C(N)=N/c1nc(CSc2ccc(C)cc2)cc(=O)[nH]1 | inconclusive: 31.6 µM [inhibitor, single point] | – |
| COC(=O)c1ccccc1NC(=O)CSc1nc(=O)cc(N)n1-c1ccccc1 | – | inactive: -1.15% |
| Cc1ccc(NC(=O)Cn2c(=O)n(Cc3nc(-c4ccccc4)no3)c(=O)c3ccccc32)cc1C | – | inactive: -20.6% |
| CCOc1ccc(NC(=O)CSc2nnc(-c3ccc(OCC)cc3)o2)cc1 | – | inactive: -6.19% |
| Cc1cccc(NC(=O)COc2ccc(-c3nn(C)c(=O)c4ccccc34)cc2)c1 | inconclusive: 39.8 µM [activator, single point] | – |
| CC(=O)N1CCn2c3ccc(C)cc3c3cccc1c32 | inconclusive: 39.8 µM [activator, single point] | – |
| Cc1ccc(CCNC(=O)c2c3c(nc4ccccc24)C(=O)N(C2CCCCC2)C3)cc1 | inconclusive: 39.8 µM [activator, single point] | – |
| CC(=O)N1CCN(c2nc(C)nc3sc4c(c23)CCC(C)C4)CC1 (stereo not drawn) | inconclusive: 39.8 µM [activator, single point] | – |
| Cc1nc2ccc(S(=O)(=O)Nc3cccc(-c4nc5cccnc5s4)c3)cc2s1 | inconclusive: 39.8 µM [activator, single point] | – |
| Cc1cccc(NC(=O)CS(=O)(=O)c2cccc3nsnc23)c1 | – | inactive: 7.35% |
| COc1ccc(NC(=O)CSc2nnc(NC(=O)NC3CCCCC3)s2)cc1OC | inconclusive: 39.8 µM [activator, single point] | – |
| CS(=O)(=O)Nc1cccc(-c2nc(N3CCOCC3)c3ccccc3n2)c1 | – | inactive: 3.21% |
| O=c1[nH]c(/C(Cl)=C/c2c(F)cccc2Cl)nc2cc(Cl)ccc12 | inconclusive: 20 µM [inhibitor, single point] | – |
| CCOc1ccc(C2c3[nH]c4ccccc4c3CCN2C(=O)CSCc2ccc(F)cc2)cc1 (stereo not drawn) | active: 10 µM | – |
| O=C(CNC(=S)NC(=O)c1ccc(Br)o1)c1ccccc1 | inconclusive: 39.8 µM [inhibitor, single point] | – |
| Cn1c(=O)c2c(nc(N3CCN(Cc4ccccc4)CC3)n2CCCc2ccccc2)n(C)c1=O | inconclusive: 31.6 µM [activator, single point] | – |
| CCc1ccc(S(=O)(=O)c2cn(Cc3ccccc3F)c3cc(OC)c(OC)cc3c2=O)cc1 | inconclusive: 39.8 µM [activator, single point] | – |
| Cn1c(=O)c2c(nc(N3CCOCC3)n2CC(=O)C23CC4CC(CC(C4)C2)C3)n(C)c1=O | inconclusive: 39.8 µM [activator, single point] | – |
| Cc1cc(Cl)cc2c1NC(=O)[C@]21[C@@H]2C(=O)N(Cc3ccccc3)C(=O)[C@@H]2[C@@H]2CCCN21 | inconclusive: 31.6 µM [activator, single point] | – |
| Cc1cc(C)c(S(=O)(=O)N2CCN(c3ccc([N+](=O)[O-])c(-n4nc(C)cc4C)c3)CC2)c(C)c1 | active: 20 µM | – |
| O=C(NCCN1C(=O)S/C(=C\c2ccc(Cl)c(Cl)c2)C1=O)c1ccc2c(c1)C(=O)N(Cc1ccncc1)C2=O | active: 12.6 µM | – |
| Cc1ccccc1-c1ccc2ncnc(N3CCOCC3)c2c1 | – | inactive: -5.28% |

| Compound | Potency | max response, negative = inhibition |
| --- | --- | --- |
| COc1ccc(S(=O)(=O)Nc2ccc3c(c2)OCO3)cc1 | – | inactive: 1.67% |
| CC(=O)C1=C(C)OC(N)=C(C#N)C1c1ccncc1 (stereo not drawn) | inconclusive: 2.51 µM [inhibitor, partial curve] | – |
| Cc1ccc(F)cc1NC(=O)Cn1c(C)cc(C)c(C#N)c1=O | – | inactive: 10.2% |
| COc1cccc(CNC(=O)Cc2c(C)c3ccc(OC)c(C)c3oc2=O)c1 | – | inactive: 8.7% |
| O=C(Nc1cccn(Cc2c(Cl)cccc2Cl)c1=O)c1c(Cl)cccc1Cl | inconclusive: 31.6 µM [inhibitor, single point] | – |
| Cc1ccc(S(=O)(=O)Oc2ccccc2/C=N/NC(N)=S)cc1 | inconclusive: 12.6 µM [inhibitor, partial curve, poor fit] | – |
| CC1CCN(c2nc3ccc(C(=O)NCc4ccccc4Cl)cc3s2)CC1 | inconclusive: 39.8 µM [inhibitor, single point] | – |
| O=C(NC1CCCC1)c1ccc2c(c1)N(Cc1ccccc1)C(=O)c1ccccc1S2 | inconclusive: 31.6 µM [inhibitor, single point] | – |
| COc1ccc(CNCCC(c2ccc3c(c2)OCO3)c2ccccc2OC)cc1 (stereo not drawn) | – | inactive: 12.2% |
| CC(=O)N1[C@H](Cc2ccccc2)C=C[C@]1(C)C(=O)NCc1cc(F)cc(C(F)(F)F)c1 | inconclusive: 39.8 µM [activator, single point] | – |
| Cc1cccn2c(=O)c(C(=O)NCCc3ccccc3)cnc12 | – | inactive: -8.94% |
| CCOc1ccc(CCNC(=O)c2cc(C)nc3c2c(C)nn3-c2cccc(F)c2)cc1 | – | inactive: -4.96% |
| COCCCNC(=O)Cn1c(=O)nc(-c2ccccc2)c2ccccc21 | – | inactive: -6.31% |
| Cc1cccc(NC(=O)CCC(=O)N/N=C/c2cc([N+](=O)[O-])ccc2O)c1 | inconclusive: 31.6 µM [inhibitor, single point] | – |
| Cc1ccnc(N2CCC(C(=O)Nc3ccc(Oc4ccccc4)cc3)CC2)n1 | inconclusive: 31.6 µM [inhibitor, single point] | – |
| CCOc1nc(C#N)nc(N2CCCCC2)n1 | active: 0.501 µM | – |
| CC(CNC(=O)c1nnc(Cc2ccc(F)cc2)o1)c1ccccc1 (stereo not drawn) | – | inactive: -2.72% |
| CC(=O)c1cccc(NC(=O)CC(c2ccc(C)cc2)N2Cc3ccccc3C2=O)c1 (stereo not drawn) | – | inactive: -6.92% |
| CC(C)CC(=O)Nc1ccc(Oc2ccc(NC(=O)CC(C)C)cc2)cc1 | inconclusive: 39.8 µM [inhibitor, single point] | – |
| Oc1ccc(C2=NNC(=NCc3ccc4c(c3)OCO4)SC2)c(O)c1 | inconclusive: 39.8 µM [inhibitor, single point] | – |
| CCCCC(=O)N/N=C(\C)CC(=O)Nc1cc(Cl)ccc1OC | – | inactive: 7.24% |
| COc1ccc(-c2cc(C#N)nc(N3CCNCC3)n2)cc1 | active: 31.6 µM | – |
| Cc1ccc(-n2c(=O)[nH]c3cc(C(=O)NCc4ccccc4)ccc3c2=O)cc1 | – | inactive: -1.48% |

| Compound | Potency | max response, negative = inhibition |
| --- | --- | --- |
| CCNC(=S)NCc1ccc2[nH]c(C)cc2c1 | – | inactive: 10.5% |
| c1cc(CSc2ncnc3nc[nH]c23)ccn1 | – | inactive: 2.75% |
| COC(=O)c1c(NC(=O)CN2CCN(c3ccccc3OC)CC2)c2c(C)cccc2n1C | inconclusive: 25.1 µM [activator, partial curve] | – |
| COc1ccc(C)cc1NS(=O)(=O)c1c(C(=O)N2CCCCCC2)c(C)n(C)c1C | inconclusive: 39.8 µM [activator, single point] | – |
| Cc1cccc(C(=O)N2CCC(=O)N(C(COCc3cccc(Cl)c3)Cc3ccccc3)CC2)c1 (stereo not drawn) | inconclusive: 39.8 µM [activator, single point] | – |
| CCc1ccc2[nH]c(=O)c(CN(CCN3CCCC3)C(=O)NC3CCCCC3)cc2c1 | inconclusive: 31.6 µM [inhibitor, single point] | – |
| COc1ccc2cc(C(=O)NCc3ccc4c(c3)CCN4C(=O)c3ccc(F)cc3)[nH]c2c1 | active: 25.1 µM | – |
| CCOC(=O)c1cnn(-c2ccc(C(=O)Nc3cccc(C(C)=O)c3)cc2)c1N | inconclusive: 20 µM [activator, partial curve] | – |
| N#C/C(=C\c1cn(Cc2ccccc2C#N)c2ccccc12)C(=O)NCc1cccs1 | inconclusive: 39.8 µM [inhibitor, single point] | – |
| Cc1ccc(CNC(=O)CCn2cnc3ccccc3c2=O)cc1 | – | inactive: 10.6% |
| COC(=O)c1ccc(NC(=O)CNC(=O)C2CCCCC2)c(C)c1 | – | inactive: -7.2% |
| COc1cccc(C(=O)NC2=NCCS2)c1 | – | inactive: -5.01% |
| CCn1c2ccccc2c2cc(NC(=O)CSc3nnc(-c4ccc(OC)cc4)n3N)ccc21 | inconclusive: 39.8 µM [inhibitor, single point] | – |
| COc1cc(NC(=O)c2ccco2)c(OC)cc1NC(=O)CCC(=O)Nc1cc(C)cc(C)c1 | inconclusive: 25.1 µM [activator, single point] | – |
| CCOC(=O)c1c(C)[nH]c(C)c1S(=O)(=O)N1CCCC(C(=O)NCc2ccc(Cl)cc2)C1 (stereo not drawn) | inconclusive: 31.6 µM [activator, single point] | – |
| O=C(c1cnn2c(C(F)(F)F)cc(-c3cccs3)nc12)N1CCN(C(c2ccccc2)c2ccccc2)CC1 | inconclusive: 15.8 µM [inhibitor, partial curve] | – |
| COc1ccc(-c2noc(-c3cccnc3N3CCN(c4ccc(OC)cc4)CC3)n2)cc1 | – | inactive: -1.08% |
| O=C(Nc1cccc(Cl)c1)c1ccc2c(c1)CCN2S(=O)(=O)c1ccccc1 | inconclusive: 39.8 µM [inhibitor, single point] | – |
| Cc1oc2ccc(O)cc2c1C(=O)OC(C)C | – | inactive: -3.58% |
| O=S(=O)(NCc1ccccc1)c1ccc(S(=O)(=O)N2CCCCC2)cc1 | inconclusive: 25.1 µM [inhibitor, single point] | – |
| CCOc1ccc(NC(=O)c2sc3nc4c(c(-c5ccc(OC)cc5)c3c2N)C(=O)CC(C)(C)C4)cc1 | – | inactive: -17.8% |
| Oc1c(C=NCc2ccc(F)cc2)[nH]c2ccc(Br)c(Cl)c12 | inconclusive: 31.6 µM [inhibitor, single point] | – |
